From patent publication US9499612B2, “Antigen binding constructs” (Glaxo Group Limited, priority 2011, dated 2016)

T1: rhVEGF165 (Homo sapiens, UniProt P15692)
T1 construct: made in house; host or cells: HEK293 cells, transient transfection
T1 sequence (P15692 27-191 isoform P15692-4): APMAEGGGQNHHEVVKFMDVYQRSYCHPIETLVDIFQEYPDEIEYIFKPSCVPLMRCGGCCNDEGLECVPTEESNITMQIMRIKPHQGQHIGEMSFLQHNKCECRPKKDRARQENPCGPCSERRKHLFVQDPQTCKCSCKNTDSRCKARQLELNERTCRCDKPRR


Molecular target: T1, rhVEGF165
Test: BIACORE T100 SPR binding to VEGF165 at 37° C.
Conditions: for fit: fit to 1:1 model
Procedure: (§1) The run was carried out at 37° C., using HBS-EP as the running buffer.
as §1, §1, §1, §1

Molecule	fit (Table 11A)	Kd (Table 11A, 37 °C)	further results
DMS30006: Vk dAb-Fc molecule (protein, N-terminal Fc fusion of K-044-255 DAB (AAAS Linker) dAb-Fc amino acid sequence identified using molecular biology techniques., Vk dAb-Fc molecule) ESTDIQMTQSPSSLSASVGDRVTITCRASQWIGPELKWYQQKPGKAPKLLIYHGSILQSGVPSRFSGSGSGTDFTLTISSLQPEDFATYYCQQYMYYPKTFGQGTKVEIKRAA[human IgG1 Fc and a few adjoining residues not shown]			fit of binding data (cell spanning ka, kd, KD) (Table 5, 37 °C): Poor fit to 1:1 model
C085 G4Sx3: Vk Fc-dAb, DT02-K-044-085 with C-terminal Gly4Ser 3x Linker (protein, C-terminal Fc fusion of K-044-085 DAB ((Gly4Ser)x3) amino acid sequence identified using molecular biology techniques., Vk Fc-dAb, DT02-K-044-085 with C-terminal Gly4Ser 3x Linker) [human IgG1 Fc not shown]GGGGSGGGGSGGGGSDIQMTQSPSSLSASVGDRVTITCRASQWIGPELKWYQQKPGKAPKLLIYHGSILQSGVPSRFSGSGSGTDFTLTISSLQPEDFATYYCQQYMYYPHTFGQGTKVEIKR	ok		
C085 G4Sx4: Vk Fc-dAb, DT02-K-044-085 with C-terminal Gly4Ser 4x Linker (protein, C-terminal Fc fusion of K-044-085 DAB ((Gly4Ser)x4) amino acid sequence identified using molecular biology techniques., Vk Fc-dAb, DT02-K-044-085 with C-terminal Gly4Ser 4x Linker) [human IgG1 Fc not shown]GGGGSGGGGSGGGGSGGGGSDIQMTQSPSSLSASVGDRVTITCRASQWIGPELKWYQQKPGKAPKLLIYHGSILQSGVPSRFSGSGSGTDFTLTISSLQPEDFATYYCQQYMYYPHTFGQGTKVEIKR	ok		Ka (Table 11A, 37 °C, VEGF 16 nM-[…]): 6.11E+06 M − 1 · s − 1
DMS30013: anti-VEGF Vk dAb / Fc fusion (SEQ ID NO:16 & 44) (protein, C-terminal Fc fusion of K-044-085 DAB (Albumin Domain 3 Linker) Fc-dAb nucleic acid sequence identified using molecular biology techniques.) [human IgG1 Fc and a few adjoining residues not shown]EVDETYVPKEFNAETFTFHADDIQMTQSPSSLSASVGDRVTITCRASQWIGPELKWYQQKPGKAPKLLIYHGSILQSGVPSRFSGSGSGTDFTLTISSLQPEDFATYYCQQYMYYPHTFGQGTKVEIKR	ok	Too tight	
DMS30014: anti-VEGF Vk dAb / Fc fusion compared in Table 11A (protein, C-terminal Fc fusion of K-044-085 DAB(Albumin Domain 3 Linker) Fc-dAb amino acid sequence identified using molecular biology techniques.) [human IgG1 Fc not shown]EVDETYVPKEFNAETFTFHADDIQMTQSPSSLSASVGDRVTITCRASQWIGPELKWYQQKPGKAPKLLIYHGSILQSGVPSRFSGSGSGTDFTLTISSLQPEDFATYYCQQYMYYPHTFGQGTKVEIKR	Ok	At the limite of	
N085 Fibrx4: Vk dAb-Fc, DT02-K-085 linked to IgG1Fc by N-terminal linker Fibronectin 4 (protein) DIQMTQSPSSLSASVGDRVTITCRASQWIGPELKWYQQKPGKAPKLLIYHGSILQSGVPSRFSGSGSGTDFTLTISSLQPEDFATYYCQQYMYYPHTFGQGTKVEIKRTGLDSPTGLDSPTGLDSPTGLD[human IgG1 Fc and a few adjoining residues not shown]	Not ideal/doesn't look like		
N085TVAAPS: Vk dAb-Fc, DT02-K-085 linked to IgG1Fc by N-terminal 1xTVAAPS linker (protein, N-terminal Fc fusion of K-044-085 DAB (TVAAPS) amino acid sequence identified using molecular biology techniques., Vk dAb-Fc, DT02-K-085 linked to IgG1Fc by N-terminal 1xTVAAPS linker) DIQMTQSPSSLSASVGDRVTITCRASQWIGPELKWYQQKPGKAPKLLIYHGSILQSGVPSRFSGSGSGTDFTLTISSLQPEDFATYYCQQYMYYPHTFGQGTKVEIKRTVAA[human IgG1 Fc and a few adjoining residues not shown]	Not ideal/doesn't look like	Too tight	comment (Table 11C): Biphasic curves. Doesn't look
C085 Alb DOM1: Vk Fc-dAb, DT02-K-044-085 with C-terminal Albumin Domain 1 linker (protein) [human IgG1 Fc not shown]HKDDNPNLPRLVRPEVDVMDIQMTQSPSSLSASVGDRVTITCRASQWIGPELKWYQQKPGKAPKLLIYHGSILQSGVPSRFSGSGSGTDFTLTISSLQPEDFATYYCQQYMYYPHTFGQGTKVEIKR	Ok and ok		
C085 Alb DOM2: Vk Fc-dAb, DT02-K-085 linked to IgG1Fc by C-terminal linker Albumin domain 2 (protein) [human IgG1 Fc not shown]ENDEMPADLPSLAADFVESKDDIQMTQSPSSLSASVGDRVTITCRASQWIGPELKWYQQKPGKAPKLLIYHGSILQSGVPSRFSGSGSGTDFTLTISSLQPEDFATYYCQQYMYYPHTFGQGTKVEIKR	ok	Too tight	
C085 Alb DOM3: Vk Fc-dAb, DT02-K-044-085 with C-terminal Albumin Domain 3 linker (protein) [human IgG1 Fc not shown]EVDETYVPKEFNAETFDIQMTQSPSSLSASVGDRVTITCRASQWIGPELKWYQQKPGKAPKLLIYHGSILQSGVPSRFSGSGSGTDFTLTISSLQPEDFATYYCQQYMYYPHTFGQGTKVEIKR	ok		
DMS30026: Vk Fc-dAb, DT02-K-085 dAb attached to IgG1Fc by C-terminal fib4 linker (protein, C-terminal Fc fusion of K-044-085 DAB ((TGLDSP)x4) amino acid sequence identified using molecular biology techniques., Vk Fc-dAb, DT02-K-085 dAb attached to IgG1Fc by C-terminal fib4 linker) [human IgG1 Fc not shown]TGLDSPTGLDSPTGLDSPTGLDSPDIQMTQSPSSLSASVGDRVTITCRASQWIGPELKWYQQKPGKAPKLLIYHGSILQSGVPSRFSGSGSGTDFTLTISSLQPEDFATYYCQQYMYYPHTFGQGTKVEIKR	ok	At the limit of	comment (Table 11B): Good fit to the 1:1 binding model
